The name of at least one read-out is uncertain.
Tests used:
[1] = tested on: Staphylococcus aureus; experiment: AK assay 96-well format; type: cell-based
[2] = tested on: Acinetobacter baumannii 98-37-09; experiment: AK assay 96-well format; type: cell-based
[3] = Staphylococcus aureus RN4220, treatment 0.5×MIC
[4] = Staphylococcus aureus RN4220, treatment 1.0×MIC
[5] = Staphylococcus aureus USA300-0114, treatment 0.5×MIC
[6] = Staphylococcus aureus USA300-0114, treatment 1.0×MIC

`NC[C@H]1O[C@H](O[C@H]2[C@H](O)[C@@H](O[C@H]3O[C@H](CO)[C@@H](O)[C@H](N)[C@H]3O)[C@H](N)C[C@@H]2N)[C@H](O)[C@@H](O)[C@@H]1O` [Kanamycin, kanamycin] was tested, and the “Fold increase in AK signal” value [1, 3] was 1 fold and the “Fold increase in AK signal” value [1, 4] was 1 fold.

`Cc1cc(NS(=O)(=O)c2ccc(N)cc2)no1` [Sulfamethoxazole, sulfamethoxazole] was tested, and the “Fold increase in AK signal” value [1, 3] was 2 fold and the “Fold increase in AK signal” value [1, 4] was 3 fold.

With `CN[C@H](CC(C)C)C(=O)N[C@H]1C(=O)N[C@@H](CC(N)=O)C(=O)N[C@H]2C(=O)N[C@H]3C(=O)N[C@H](C(=O)N[C@H](C(=O)O)c4cc(O)cc(O)c4-c4cc3ccc4O)[C@H](O)c3ccc(c(Cl)c3)Oc3cc2cc(c3O[C@@H]2O[C@H](CO)[C@@H](O)[C@H](O)[C@H]2O[C@H]2C[C@](C)(N)[C@H](O)[C@H](C)O2)Oc2ccc(cc2Cl)[C@H]1O` [Vancomycin, vancomycin] the “Fold increase in AK signal” value [1, 3] was 3 fold, the “Fold increase in AK signal” value [1, 4] was 6 fold and the “Fold increase in AK signal” value [1, 5] was 11 fold. For the same molecule, the “Fold increase in AK signal” value [1, 6] was 3 fold, the “Fold increase in AK signal” value ([2]; treatment 0.5×MIC) was 2 fold and the “Fold increase in AK signal” value ([2]; treatment 1.0×MIC) was 4 fold.

`CC1(C)S[C@@H]2[C@H](NC(=O)[C@H](N)c3ccccc3)C(=O)N2[C@H]1C(=O)O` [Ampicillin, ampicillin] was tested, and the “Fold increase in AK signal” value [1, 3] was 4 fold and the “Fold increase in AK signal” value [1, 4] was 3 fold.

In the case of `CO/N=C(\C(=O)N[C@@H]1C(=O)N2C(C(=O)O)=C(CSc3nc(=O)c(=O)[nH]n3C)CS[C@H]12)c1csc(N)n1` [Ceftriaxone, ceftriaxone], the “Fold increase in AK signal” value [1, 3] is reported as 10 fold and the “Fold increase in AK signal” value [1, 4] is reported as 12 fold.

With `CC(=O)NC[C@H]1CN(c2ccc(N3CCOCC3)c(F)c2)C(=O)O1` [Linezolid, linezolid] the “Fold increase in AK signal” value [1, 3] was 1 fold and the “Fold increase in AK signal” value [1, 4] was 1 fold.

`CN(C)c1ccc(O)c2c1C[C@H]1C[C@H]3[C@H](N(C)C)C(O)=C(C(N)=O)C(=O)[C@@]3(O)C(O)=C1C2=O` [Minocycline, minocycline] was tested, and the “Fold increase in AK signal” value [1, 3] was 1 fold and the “Fold increase in AK signal” value [1, 4] was 1 fold.

In the case of `CC[C@H]1OC(=O)[C@H](C)[C@@H](O[C@H]2C[C@@](C)(OC)[C@@H](O)[C@H](C)O2)[C@H](C)[C@@H](O[C@@H]2O[C@H](C)C[C@H](N(C)C)[C@H]2O)[C@](C)(O)C[C@@H](C)C(=O)[C@H](C)[C@@H](O)[C@]1(C)O` [Erythromycin, erythromycin], the “Fold increase in AK signal” value [1, 3] is reported as 1 fold and the “Fold increase in AK signal” value [1, 4] is reported as 1 fold.

With `C[C@@H](O)[C@H]1C(=O)N2C(C(=O)O)=C(S[C@@H]3CN[C@H](C(=O)N(C)C)C3)[C@H](C)[C@H]12` [Meropenem, meropenem] the “Fold increase in AK signal” value [1, 3] was 11 fold, the “Fold increase in AK signal” value [1, 4] was 11 fold and the “Fold increase in AK signal” value [1, 5] was 13 fold. For the same molecule, the “Fold increase in AK signal” value [1, 6] was 17 fold, the “Fold increase in AK signal” value ([2]; treatment 0.5×MIC) was 79 fold and the “Fold increase in AK signal” value ([2]; treatment 1.0×MIC) was 134 fold.
